The experiment has as its target T1, ectodomain of murine βKlotho (F53 to L995 of SEQ ID NO: 218) with a C-terminal FLAG tag (UniProt Q99N32 53-995).
T1 chain: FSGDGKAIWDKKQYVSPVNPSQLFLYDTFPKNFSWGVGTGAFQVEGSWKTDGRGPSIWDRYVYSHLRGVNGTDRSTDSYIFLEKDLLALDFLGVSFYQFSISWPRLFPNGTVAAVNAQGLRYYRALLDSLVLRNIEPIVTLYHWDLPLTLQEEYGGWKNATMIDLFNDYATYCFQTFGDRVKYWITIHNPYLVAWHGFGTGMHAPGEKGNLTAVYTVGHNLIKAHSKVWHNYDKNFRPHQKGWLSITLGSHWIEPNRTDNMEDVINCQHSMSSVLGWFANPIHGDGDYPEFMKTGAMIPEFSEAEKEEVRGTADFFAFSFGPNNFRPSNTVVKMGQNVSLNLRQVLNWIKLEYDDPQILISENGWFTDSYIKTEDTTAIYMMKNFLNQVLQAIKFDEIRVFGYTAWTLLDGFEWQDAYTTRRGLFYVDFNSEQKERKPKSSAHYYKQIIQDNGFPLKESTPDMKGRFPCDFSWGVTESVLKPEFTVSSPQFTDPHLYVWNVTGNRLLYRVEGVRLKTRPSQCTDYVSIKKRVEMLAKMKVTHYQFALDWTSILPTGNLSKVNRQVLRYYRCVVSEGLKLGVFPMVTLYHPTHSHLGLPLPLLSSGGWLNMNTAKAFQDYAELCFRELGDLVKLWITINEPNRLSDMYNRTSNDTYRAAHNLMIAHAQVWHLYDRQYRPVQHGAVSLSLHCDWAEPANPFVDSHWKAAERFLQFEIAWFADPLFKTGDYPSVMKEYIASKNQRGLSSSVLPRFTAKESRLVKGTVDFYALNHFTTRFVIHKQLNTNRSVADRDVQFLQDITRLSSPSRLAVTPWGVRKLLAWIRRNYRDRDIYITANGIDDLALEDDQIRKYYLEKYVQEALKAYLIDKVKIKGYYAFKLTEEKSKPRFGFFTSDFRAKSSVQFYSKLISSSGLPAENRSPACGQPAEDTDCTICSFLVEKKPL
Nature of the experiment: SPR. (In general: In SPR one partner is held on a chip, and binding of the other changes the refractive index at the surface.)

B1: ligand-binding domain of human FGFR4 ([…] of SEQ ID NO: 230) (receptor)
chain: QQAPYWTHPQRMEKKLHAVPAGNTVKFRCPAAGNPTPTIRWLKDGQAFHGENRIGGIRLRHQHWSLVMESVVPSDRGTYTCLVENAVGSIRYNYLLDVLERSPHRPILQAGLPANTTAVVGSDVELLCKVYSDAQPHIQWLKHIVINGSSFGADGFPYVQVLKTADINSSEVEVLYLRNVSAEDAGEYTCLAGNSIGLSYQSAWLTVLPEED
With B1, the Kd (usually the concentration at which binding is half-saturated) was determined as 84 nM.
